Assay results published in PubChem BioAssay AID588855 (National Center for Advancing Translational Sciences (NCATS), 2011).
Values joined by “and” are separate entries in the source; they are usually repeats but may differ in a detail not shown here. Identical values can stand only once. The campaign covered roughly 410,000 compounds. About 5,000 (1.2%) were called active. Inconclusive results, whose numbers are uncertain, are shown with a selection of clear calls. Calls come from the whole dose curve; as a rule, active = well fitted inhibition curve with a large enough effect; inconclusive = small, poorly fitted or top-dose-only effect; inactive = no such curve, though single readings can be large or run the other way. Potencies of inconclusive entries are doubtful fits and often do not repeat.

Test: qHTS for Inhibitors of TGF-b; note: nearly all actives have a fitted effect of over 65% in size
Details: HepG2 CAGA-GFP TGF-b/SMAD3 reporter, GFP fluorescence, 18 h, TGF-beta stimulated, 500 pg/mL final; series mostly up to 46.1 µM
Outline: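 Per well, imaged GFP fluorescence of HEPG2 CAGA-GFP cells gives the signal; cells get compound, then TGF-beta (500 pg/mL final), 18 h at 37 degrees C; %Activity versus -TGF-beta and +DMSO controls.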
Potency is the fitted concentration of half-maximal effect; tags give direction and shape of the fitted curve.

SMILES	Potency
O=C(Cc1cccc(NC(=O)C2CCN(C(=O)CCc3ccccc3)CC2)c1)Nc1cccc(C(=O)N2CCCC2)c1	inactive
COc1ccc(C)cc1Nc1nc(N)c2cc(OC)c(OC)cc2n1	inconclusive: 35.5 µM [inhibitor, single point] and inconclusive: 28.2 µM [inhibitor, single point]
CCCCn1c(=NC(=O)c2ccco2)c(C(=O)OCC)cc2c(=O)n3cccc(C)c3nc21	inconclusive: 3.55 µM [inhibitor, full curve, poor fit]
Cc1nc2c(c(C)nn2-c2ccccc2)c(C)c1CCC(=O)NCc1ccccc1	inactive
CCc1cccc(NC(=O)C2CCN(S(=O)(=O)c3cccc(-c4noc(C)n4)c3)CC2)c1	inconclusive: 2.24 µM [inhibitor, partial curve]
O=C(CSc1nnc(-c2ccco2)n1Cc1ccccc1)NC(=O)NCc1ccccc1	inconclusive: 20 µM [inhibitor, single point]
CCc1cc2c(SCc3nc4sc(C(C)=O)c(C)c4c(=O)[nH]3)ncnc2s1	inactive
COc1cccc(NC(=O)CN(C)CC(=O)c2c(C)[nH]c3ccccc23)c1	inactive
CCc1cccc(CC)c1NC(=O)COC(=O)CC1c2ccccc2CCN1S(=O)(=O)c1ccccc1 (stereo not given)	inconclusive: 31.6 µM [inhibitor, single point]
C=CC[C@@H](Cc1ccc(F)cc1)C(=O)OC[C@@H]1CCCN1C(=O)[C@@H](CC=C)CC(=O)N[C@@H](CO)Cc1ccccc1	inconclusive: 35.5 µM [inhibitor, single point]
OCCNc1nc(-c2ccccc2)c2cc(Br)ccc2n1	inconclusive: 4.47 µM [inhibitor, single point]
CCOc1ccc(N(C(C)C(=O)NCc2ccco2)S(C)(=O)=O)cc1 (stereo not given)	inactive
COc1ccc(CN2CCN(C(=O)c3cc(-c4cccnc4)nc4ccc(Cl)cc34)CC2)c(OC)c1OC	inconclusive: 35.5 µM [inhibitor, single point]
COc1cccc(NC(=O)Cc2cccs2)c1	inactive
CC(C)(C)c1ccc(CC(=O)N2CCC2(C)C(=O)Nc2cnc3ccccc3c2)cc1 (stereo not given)	inconclusive: 35.5 µM [inhibitor, single point]
O=C(COC(=O)c1ccc(Cl)c(S(=O)(=O)N2CCCCCC2)c1)Nc1ccccc1	inconclusive: 35.5 µM [inhibitor, single point]
Cc1cc(Br)cc(/C=N/NC(=O)c2ccc3c(c2)OCO3)c1O	active: 5.62 µM
Cc1ccn2cc(-c3cccc(NC(=O)c4cccs4)c3)nc2c1	inconclusive: 35.5 µM [inhibitor, single point]
Oc1ccc(C[C@H]2CNCCN2CCCCC2CCCCC2)cc1	inconclusive: 35.5 µM [inhibitor, partial curve, poor fit]
Cc1ccc(CSc2nc3cccnc3n2Cc2ccc(C(=O)NCCc3cccs3)cc2)cc1	inconclusive: 35.5 µM [inhibitor, single point]

SMILES	Potency
O=C(CSc1nnc(COc2cccc3cccnc23)o1)c1ccc(F)cc1	inconclusive: 35.5 µM [inhibitor, single point]
CC1CCN(S(=O)(=O)c2cc(C(=O)N3CCN(c4ccccc4F)CC3)n(C)c2)CC1	inconclusive: 2 µM [inhibitor, partial curve, poor fit]
Cc1cc(C(=O)CSc2nc3ccc(Cl)cc3[nH]2)c(C)n1Cc1ccco1	inconclusive: 3.98 µM [inhibitor, full curve, poor fit]
COc1ccc(N(CC(=O)NCCc2ccc(Cl)cc2)S(=O)(=O)c2c(C)nn(C)c2C)cc1	inconclusive: 35.5 µM [inhibitor, single point]
Cc1ccc(-c2n[nH]c(=O)c3ccccc23)cc1S(=O)(=O)NCC1CCCO1 (stereo not given)	inactive
COC(=O)c1cccc(C23CC4(C2)[C@H](CN(Cc2cccnc2)[C@@H]4c2ccccc2)C3c2ccc(Cl)nc2)c1 (stereo not given in full)	inconclusive: 35.5 µM [inhibitor, single point]
O=C(Nc1cc(Br)ccc1F)c1nc[nH]c1C(=O)NCc1ccccc1	inconclusive: 14.1 µM [inhibitor, single point]
Cc1ccc(C(=O)N2CCC(C(N)=O)CC2)cc1NC(=O)c1nsc2ccccc12	inactive
CCc1ccc(C(=O)OCC(=O)c2c(N)n(CC(C)C)c(=O)n(C)c2=O)cc1	inconclusive: 35.5 µM [inhibitor, single point]
CNc1ccccc1C(C)(C)c1cc(-c2ccco2)n[nH]1	inactive
CCOc1ccc(C(=O)C(CN2CCOCC2)c2ccccc2)cc1 (stereo not given)	inconclusive: 15.8 µM [inhibitor, partial curve, poor fit]
C=C(C)COc1ccc(-c2nc(N)ncc2-c2ccccc2OC)c(O)c1	inconclusive: 35.5 µM [inhibitor, single point]
COCOc1ccc(C=O)c(O)c1	inconclusive: 0.631 µM [inhibitor, full curve, poor fit]
Cc1ccc(S(=O)(=O)Nc2ccc(-c3nc4ccc(C)cc4s3)cc2)cc1	inconclusive: 7.94 µM [inhibitor, partial curve, poor fit]
COC(=O)CSc1nnc2n(-c3ccc(OC)cc3)c(=O)c3c4c(sc3n12)CCCCC4	inactive
COc1ccccc1Nc1cc(N2CCOCC2)c2nonc2c1[N+](=O)[O-]	inactive
Cc1cc(C(=O)NC2CCCc3c2cnn3-c2ccc(C(C)(C)C)cc2)nn1C (stereo not given)	inconclusive: 2.24 µM [inhibitor, full curve, poor fit]
CCOC(=O)N1CCC2(CC1)C(C#N)=C(N)OC1=C2C(=O)CC(C)(C)C1	inconclusive: 6.31 µM [inhibitor, single point]
O=C(c1ccccc1C(=O)N1CCN(c2ccc(F)cc2)CC1)N1CCN(c2ccc(F)cc2)CC1	inconclusive: 1.26 µM [inhibitor, full curve]
COc1ccc(OCCCC(=O)NCCc2nc3ccccc3[nH]2)cc1	inactive
